Laboratory results taken from PMC10362570.
No constants are given. Whether binding was seen depends on the method and setting. For some of these results: Binding seen in cells or lysates may run through a third protein. Some binding calls cover weakened binding; strength is not graded here.

Chains of the proteins cited; added tags and fusions are not shown. Lines headed by an entry give the natural chain unless they say otherwise; changes in a name come on top. A line that says so, or that is headed by a name, gives the form on record, which may keep a tag or linker. Residues count along the entry.
UniProt Q63373, residues 47-468: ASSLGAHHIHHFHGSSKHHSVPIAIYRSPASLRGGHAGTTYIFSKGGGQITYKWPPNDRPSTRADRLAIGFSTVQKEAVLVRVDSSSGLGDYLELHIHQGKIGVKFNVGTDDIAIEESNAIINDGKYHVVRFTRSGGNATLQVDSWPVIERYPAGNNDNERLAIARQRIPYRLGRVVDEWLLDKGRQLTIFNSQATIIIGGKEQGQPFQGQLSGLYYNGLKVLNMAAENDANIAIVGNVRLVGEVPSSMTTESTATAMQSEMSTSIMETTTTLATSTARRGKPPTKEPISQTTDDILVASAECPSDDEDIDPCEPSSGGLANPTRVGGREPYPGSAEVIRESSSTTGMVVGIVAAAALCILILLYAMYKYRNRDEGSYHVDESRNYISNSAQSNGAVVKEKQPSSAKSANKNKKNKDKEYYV
UniProt P98153: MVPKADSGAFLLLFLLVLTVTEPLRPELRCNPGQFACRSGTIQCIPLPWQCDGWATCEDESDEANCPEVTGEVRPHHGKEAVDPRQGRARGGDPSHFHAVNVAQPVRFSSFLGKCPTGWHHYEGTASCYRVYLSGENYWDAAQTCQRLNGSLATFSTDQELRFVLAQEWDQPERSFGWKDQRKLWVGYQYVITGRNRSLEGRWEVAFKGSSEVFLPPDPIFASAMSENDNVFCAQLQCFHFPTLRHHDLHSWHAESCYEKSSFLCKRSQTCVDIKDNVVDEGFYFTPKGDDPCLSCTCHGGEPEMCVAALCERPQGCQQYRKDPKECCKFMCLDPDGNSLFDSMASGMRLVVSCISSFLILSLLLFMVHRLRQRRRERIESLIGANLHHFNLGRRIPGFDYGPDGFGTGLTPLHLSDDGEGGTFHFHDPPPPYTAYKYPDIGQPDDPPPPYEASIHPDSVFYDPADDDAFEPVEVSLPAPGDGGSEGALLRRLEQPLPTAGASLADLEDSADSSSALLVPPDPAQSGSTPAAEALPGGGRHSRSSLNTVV
FLAG-tagged human DGCR2 (FLAG-hDGCR2): residues 22-550 of P98153
UniProt Q07310, residues 28-1578: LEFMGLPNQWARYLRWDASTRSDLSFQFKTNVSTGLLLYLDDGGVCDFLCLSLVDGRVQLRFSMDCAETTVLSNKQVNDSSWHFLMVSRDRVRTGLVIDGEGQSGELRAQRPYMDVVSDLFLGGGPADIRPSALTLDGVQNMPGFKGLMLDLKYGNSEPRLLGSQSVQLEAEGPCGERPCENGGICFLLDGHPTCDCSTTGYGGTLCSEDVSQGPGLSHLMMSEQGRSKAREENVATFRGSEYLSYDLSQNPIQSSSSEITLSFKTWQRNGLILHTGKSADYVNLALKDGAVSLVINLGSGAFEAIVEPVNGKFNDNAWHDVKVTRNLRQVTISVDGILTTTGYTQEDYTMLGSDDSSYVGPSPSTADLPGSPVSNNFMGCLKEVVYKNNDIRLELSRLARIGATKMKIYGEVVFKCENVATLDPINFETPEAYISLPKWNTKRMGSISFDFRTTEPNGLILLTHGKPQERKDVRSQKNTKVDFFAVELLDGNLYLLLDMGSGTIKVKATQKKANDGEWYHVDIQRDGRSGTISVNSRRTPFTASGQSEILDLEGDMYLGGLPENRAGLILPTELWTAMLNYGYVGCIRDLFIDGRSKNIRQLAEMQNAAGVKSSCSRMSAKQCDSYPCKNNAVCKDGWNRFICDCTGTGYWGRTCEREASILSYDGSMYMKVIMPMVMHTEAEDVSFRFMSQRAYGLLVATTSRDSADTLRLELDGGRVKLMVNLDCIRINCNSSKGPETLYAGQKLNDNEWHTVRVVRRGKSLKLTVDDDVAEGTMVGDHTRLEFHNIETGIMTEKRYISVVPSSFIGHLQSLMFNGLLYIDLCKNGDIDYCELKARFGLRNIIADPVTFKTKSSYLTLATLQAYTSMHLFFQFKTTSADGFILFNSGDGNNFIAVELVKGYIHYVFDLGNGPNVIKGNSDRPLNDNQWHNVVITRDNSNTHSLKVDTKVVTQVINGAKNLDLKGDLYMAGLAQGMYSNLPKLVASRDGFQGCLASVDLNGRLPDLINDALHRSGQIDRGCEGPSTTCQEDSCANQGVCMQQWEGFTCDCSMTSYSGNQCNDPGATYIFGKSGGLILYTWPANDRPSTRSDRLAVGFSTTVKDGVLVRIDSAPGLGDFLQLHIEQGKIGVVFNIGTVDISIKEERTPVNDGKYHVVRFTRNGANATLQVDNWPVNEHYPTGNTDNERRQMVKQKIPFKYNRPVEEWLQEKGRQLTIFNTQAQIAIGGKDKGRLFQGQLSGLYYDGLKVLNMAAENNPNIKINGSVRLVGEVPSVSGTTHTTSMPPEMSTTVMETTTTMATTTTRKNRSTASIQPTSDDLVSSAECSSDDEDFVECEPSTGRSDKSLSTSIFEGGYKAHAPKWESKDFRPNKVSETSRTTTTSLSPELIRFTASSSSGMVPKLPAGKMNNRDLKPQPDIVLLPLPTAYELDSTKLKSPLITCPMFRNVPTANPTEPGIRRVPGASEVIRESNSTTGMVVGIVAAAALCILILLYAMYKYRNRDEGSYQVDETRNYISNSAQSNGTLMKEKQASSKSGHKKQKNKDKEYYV
UniProt Q62765, residues 46-843: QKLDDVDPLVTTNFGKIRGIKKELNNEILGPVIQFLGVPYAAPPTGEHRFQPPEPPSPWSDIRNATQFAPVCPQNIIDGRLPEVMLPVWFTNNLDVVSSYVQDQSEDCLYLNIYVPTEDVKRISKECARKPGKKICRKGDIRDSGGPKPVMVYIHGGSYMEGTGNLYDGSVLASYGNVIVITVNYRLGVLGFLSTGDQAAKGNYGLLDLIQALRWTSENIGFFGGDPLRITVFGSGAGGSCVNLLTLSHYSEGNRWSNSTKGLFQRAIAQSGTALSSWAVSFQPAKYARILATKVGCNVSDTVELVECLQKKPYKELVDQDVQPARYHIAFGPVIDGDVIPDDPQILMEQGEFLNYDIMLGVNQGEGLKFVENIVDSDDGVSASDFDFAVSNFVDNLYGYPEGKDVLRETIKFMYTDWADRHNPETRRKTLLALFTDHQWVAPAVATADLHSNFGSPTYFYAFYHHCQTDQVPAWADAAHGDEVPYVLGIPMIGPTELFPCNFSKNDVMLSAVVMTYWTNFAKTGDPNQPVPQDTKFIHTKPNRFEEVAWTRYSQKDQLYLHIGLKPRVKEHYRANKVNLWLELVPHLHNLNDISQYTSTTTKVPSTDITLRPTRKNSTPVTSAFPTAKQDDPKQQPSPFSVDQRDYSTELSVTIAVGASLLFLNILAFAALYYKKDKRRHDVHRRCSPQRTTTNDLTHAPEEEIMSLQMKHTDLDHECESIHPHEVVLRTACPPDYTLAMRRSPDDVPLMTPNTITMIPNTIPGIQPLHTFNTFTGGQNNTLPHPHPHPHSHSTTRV

Columns and labels:
NRXN1β-myc/CFP [1] = target: NRXN1β-myc/CFP (UniProt Q63373); test: cell aggregation assay; as the cell aggregation assay, with an increasing amount of soluble ECD (0, 100 and 200 µL) added to the mixture of NRXN1β-expressing cells and DGCR2-expressing cells; only the binder purified
[2] = target: FLAG-tagged human DGCR2 (FLAG-hDGCR2) (human) (UniProt P98153); test: cell aggregation assay; HEK 293T cells expressing one protein with RFP (red) mixed with cells expressing the other with GFP (green); 1 h, room temperature, gentle agitation, DMEM with 10% FBS, 50 mM Hepes-NaOH pH 7.4, 10 mM CaCl2, 10 mM MgCl2; aggregates of four or more cells with at least one red and one green cell counted
[3] = target: FLAG-tagged human DGCR2 (FLAG-hDGCR2) (human) (UniProt P98153); test: co-IP; intact cells IP: anti-FLAG antibody added to co-transfected HEK 293T cells before lysis (2-4 h, 4 °C) to bind cell surface FLAG-hDGCR2; unbound antibody washed off, cells lysed in IP buffer, Protein A/G beads
[4] = target: FLAG-tagged human DGCR2 (FLAG-hDGCR2) (human) (UniProt P98153); test: co-IP; HEK 293T cells co-transfected; lysates (IP buffer: 20 mM Tris pH 7.6, 50 mM NaCl, 1 mM EDTA, 1 mM NaF, 0.5% Nonidet P-40) immunoprecipitated with anti-FLAG antibody at 4 °C; blotted with anti-GFP and anti-FLAG
NRXN1β-myc/CFP [5] = target: NRXN1β-myc/CFP (UniProt Q63373); test: co-IP; HEK 293T cells co-transfected with NRXN1β-myc/CFP, NLGN1-YFP and FLAG-hDGCR2 (also in increasing amount), ∆ECD, ∆ICD or Mock; lysates immunoprecipitated with anti-myc antibody and Protein A/G agarose; blotted with anti-NLGN1, anti-myc and anti-FLAG
NRXN1β-myc/CFP [6] = target: NRXN1β-myc/CFP (UniProt Q63373); test: cell aggregation assay; HEK 293T cells expressing one protein with RFP (red) mixed with cells expressing the other with GFP (green); 1 h, room temperature, gentle agitation, DMEM with 10% FBS, 50 mM Hepes-NaOH pH 7.4, 10 mM CaCl2, 10 mM MgCl2; aggregates of four or more cells with at least one red and one green cell counted

For “FLAG-hDGCR2-ECD-Fc (secretable ECD) (from UniProt P98153 22-346) (Fc fusion)”, the binding (NRXN1β-myc/CFP [1]) was “binds”.
For “NRXN1β-myc/CFP (from UniProt Q63373 47-468)”, the binding [2] was “binds”.
“NRXN3α-CFP (from UniProt Q07310 28-1578)” was tested, and the binding [3] was “no binding”.
“Neurolign (NLGN) 1-YFP (from UniProt Q62765 46-843)” was tested, and the binding [4] was “no binding”, the binding (NRXN1β-myc/CFP [5]) was “binds” and the binding (NRXN1β-myc/CFP [6]) was “binds”.
In the case of “Neurolign (NLGN) 4-YFP (from UniProt Q8N0W4 42-816)”, the binding [4] is reported as “no binding”.
